pIC50: −log10 of the molar value. A lower IC50 marks a more sensitive line; a fit beyond the top or the lowest dose is shown as a bound at that dose. The AUC spans the tested range (256-fold, ending at the top dose) of the same fit: 1 means no effect, lower means more sensitive. A top dose marked as inferred is not printed in the source and was worked back from the curve model.
Key:
Assay in all cases: Viability of human cancer cell lines after 72 h of drug (GDSC screen)
CAY10603 = compound: CC(C)(C)OC(=O)Nc1ccc(-c2cc(C(=O)NCCCCCCC(=O)NO)no2)cc1 [CAY10603]; details: top dose 20 µM; top dose inferred
Procedure: (§1)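 Human cancer cell lines in 384-well plates, medium with 10% serum, drug for 72 h over a 256-fold dose range (nine 2-fold or five 4-fold steps up to the top dose). Adherent lines were fixed and stained with the nucleic acid dye Syto60, suspension lines read with resazurin; signal relative to control wells, capped at 0 and 100%. One two-parameter sigmoid per drug and line, fitted in a mixed model over all curves with the slope shared within a line.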

CH5424802 = compound: CCc1cc2c(cc1N1CCC(N3CCOCC3)CC1)C(C)(C)c1[nH]c3cc(C#N)ccc3c1C2=O [CH5424802]; details: top dose 5.12 µM; top dose inferred
Procedure: as §1

ACHP (KIN001-260) = compound: N#Cc1c(C2CCNCC2)cc(-c2c(O)cccc2OCC2CC2)nc1N [ACHP (KIN001-260)]; details: top dose 20 µM; top dose inferred
Procedure: as §1

Row | Cell Line | AUC (CAY10603) | pIC50 (CAY10603) | AUC (CH5424802) | pIC50 (CH5424802) | AUC (ACHP (KIN001-260)) | pIC50 (ACHP (KIN001-260))
1 | COLO-824 (breast, adherent) | 0.613 | 5.59 | 0.988 | < 5.29 | 0.938 | < 4.70
2 | COR-L88 (small cell lung carcinoma, adherent) | 0.687 | 5.33 | 0.949 | < 5.29 | 0.959 | < 4.70
3 | COR-L105 (lung adenocarcinoma, adherent) | 0.449 | 6.06 | 0.765 | 5.64 | 0.883 | < 4.70
4 | COR-L279 (small cell lung carcinoma, suspension) | 0.363 | 6.26 | 0.973 | < 5.29 | 0.907 | < 4.70
5 | COR-L303 (small cell lung carcinoma, suspension) | 0.256 | 6.59 | 0.906 | < 5.29 | 0.956 | < 4.70
6 | COR-L321 (lung, suspension) | 0.223 | 6.71 | 0.967 | < 5.29 | 0.979 | < 4.70
7 | CP66-MEL (melanoma, adherent) | 0.851 | 4.73 | 0.979 | < 5.29 | 0.977 | < 4.70
8 | CPC-N (small cell lung carcinoma, suspension) | 0.406 | 6.17 | 0.968 | < 5.29 | 0.949 | < 4.70
9 | CTB-1 (B-cell lymphoma, suspension) | 0.223 | 6.85 | 0.938 | < 5.29 | 0.915 | < 4.70
10 | CTV-1 (acute myeloid leukaemia, suspension) | 0.482 | 5.95 | 0.988 | < 5.29 | 0.915 | 4.71
11 | Ca9-22 (head and neck, adherent) | 0.347 | 6.31 | 0.984 | < 5.29 | 0.972 | < 4.70
12 | Ca-Ski (cervix, adherent) | 0.43 | 6.11 | 0.967 | < 5.29 | 0.975 | < 4.70
13 | Calu-6 (lung adenocarcinoma, adherent) | 0.54 | 5.79 | 0.974 | < 5.29 | 0.948 | < 4.70
14 | Caov-3 (ovary, adherent) | 0.735 | 5.28 | 0.991 | < 5.29 | 0.988 | < 4.70
15 | ChaGo-K-1 (non-small cell lung carcinoma, adherent) | 0.746 | 5.14 | 0.98 | < 5.29 | 0.968 | < 4.70
16 | D-283MED (medulloblastoma, adherent) | 0.697 | 5.37 | 0.989 | < 5.29 | 0.988 | < 4.70
17 | D-502MG (glioma, adherent) | 0.643 | 5.41 | 0.971 | < 5.29 | 0.967 | < 4.70
18 | DAN-G (pancreas, adherent) | 0.634 | 5.56 | 0.991 | < 5.29 | 0.992 | < 4.70
19 | DB (B-cell lymphoma, suspension) | 0.211 | 6.81 | 0.969 | < 5.29 | 0.822 | 4.86
20 | DEL (lymphoid neoplasm, suspension) | 0.338 | 6.31 | 0.14 | 7.45 | 0.669 | 5.48

Row | Cell Line | AUC (CAY10603) | pIC50 (CAY10603) | AUC (CH5424802) | pIC50 (CH5424802) | AUC (ACHP (KIN001-260)) | pIC50 (ACHP (KIN001-260))
21 | DJM-1 (skin, adherent) | 0.893 | < 4.70 | 0.989 | < 5.29 | 0.987 | < 4.70
22 | DK-MG (glioma, adherent) | 0.697 | 5.23 | 0.948 | < 5.29 | 0.946 | < 4.70
23 | DMS-79 (small cell lung carcinoma, suspension) | 0.655 | 5.44 | 0.964 | < 5.29 | 0.961 | < 4.70
24 | DSH1 (bladder, adherent) | 0.499 | 5.91 | 0.989 | < 5.29 | 0.989 | < 4.70
25 | DU-145 (prostate, adherent) | 0.501 | 5.90 | 0.985 | < 5.29 | 0.974 | < 4.70
26 | DU-4475 (breast, suspension) | 0.52 | 5.85 | 0.992 | < 5.29 | 0.963 | < 4.70
27 | Daoy (medulloblastoma, adherent) | 0.256 | 6.57 | 0.988 | < 5.29 | 0.892 | 4.71
28 | Detroit562 (head and neck, adherent) | 0.855 | 4.82 | 0.987 | < 5.29 | 0.988 | < 4.70
29 | EB2 (Burkitt lymphoma, suspension) | 0.414 | 6.13 | 0.754 | 5.80 | 0.648 | 5.51
30 | EB-3 (Burkitt lymphoma, suspension) | 0.488 | 5.94 | 0.958 | < 5.29 | 0.829 | 4.81
31 | EBC-1 (lung squamous cell carcinoma, adherent) | 0.68 | 5.37 | 0.983 | < 5.29 | 0.97 | < 4.70
32 | ECC10 (stomach, suspension) | 0.781 | 5.06 | 0.983 | < 5.29 | 0.965 | < 4.70
33 | EFM-19 (breast, adherent) | 0.513 | 5.86 | 0.954 | < 5.29 | 0.911 | < 4.70
34 | EFO-21 (ovary, adherent) | 0.727 | 5.13 | 0.939 | < 5.29 | 0.933 | < 4.70
35 | EFO-27 (ovary, adherent) | 0.501 | 5.90 | 0.965 | < 5.29 | 0.956 | < 4.70
36 | EGI-1 (biliary tract, adherent) | 0.805 | 4.86 | 0.978 | < 5.29 | 0.961 | < 4.70
37 | EJM (lymphoid neoplasm, semi-adherent) | 0.414 | 6.12 | 0.983 | < 5.29 | 0.931 | < 4.70
38 | EM-2 (chronic myeloid leukaemia, suspension) | 0.539 | 5.79 | 0.978 | < 5.29 | 0.894 | < 4.70
39 | EW-3 (Ewing sarcoma, adherent) | 0.404 | 6.18 | 0.904 | < 5.29 | 0.907 | < 4.70
40 | EW-13 (Ewing sarcoma, suspension) | 0.529 | 5.82 | 0.875 | < 5.29 | 0.81 | 4.92

Row | Cell Line | AUC (CAY10603) | pIC50 (CAY10603) | AUC (CH5424802) | pIC50 (CH5424802) | AUC (ACHP (KIN001-260)) | pIC50 (ACHP (KIN001-260))
41 | EW-18 (Ewing sarcoma, suspension) | 0.259 | 6.62 | 0.812 | 5.53 | 0.896 | < 4.70
42 | FU97 (stomach, adherent) | 0.68 | 5.39 | 0.985 | < 5.29 | 0.967 | < 4.70
43 | FU-OV-1 (ovary, adherent) | 0.513 | 5.86 | 0.965 | < 5.29 | 0.948 | < 4.70
44 | G-292 Clone A141B1 (osteosarcoma, adherent) | 0.935 | < 4.70 | 0.95 | < 5.29 | 0.913 | < 4.70
45 | G-361 (melanoma, adherent) | 0.449 | 6.04 | 0.974 | < 5.29 | 0.898 | < 4.70
46 | G-402 (soft tissue, adherent) | 0.692 | 5.28 | 0.978 | < 5.29 | 0.951 | < 4.70
47 | GAMG (glioma, adherent) | 0.392 | 6.21 | 0.976 | < 5.29 | 0.966 | < 4.70
48 | GCIY (stomach, adherent) | 0.341 | 6.37 | 0.984 | < 5.29 | 0.981 | < 4.70
49 | GCT (soft tissue, adherent) | 0.88 | 4.74 | 0.989 | < 5.29 | 0.989 | < 4.70
50 | GDM-1 (acute myeloid leukaemia, suspension) | 0.262 | 6.57 | 0.909 | < 5.29 | 0.72 | 5.29
51 | GMS-10 (glioma, adherent) | 0.815 | 4.96 | 0.988 | < 5.29 | 0.987 | < 4.70
52 | GOTO (neuroblastoma, adherent) | 0.31 | 6.47 | 0.983 | < 5.29 | 0.941 | < 4.70
53 | H4 (glioma, adherent) | 0.549 | 5.77 | 0.986 | < 5.29 | 0.983 | < 4.70
54 | H2373 (mesothelioma, adherent) | 0.597 | 5.61 | 0.974 | < 5.29 | 0.972 | < 4.70
55 | H2818 (mesothelioma, adherent) | 0.832 | 4.87 | 0.982 | < 5.29 | 0.989 | < 4.70
56 | H3255 (lung adenocarcinoma, adherent) | 0.768 | 5.05 | 0.97 | < 5.29 | 0.982 | < 4.70
57 | H-EMC-SS (chondrosarcoma, adherent) | 0.791 | 4.92 | 0.97 | < 5.29 | 0.879 | < 4.70
58 | HA7-RCC (kidney, adherent) | 0.981 | < 4.70 | 0.985 | < 5.29 | 0.962 | < 4.70

— the supplement of paper PMC4967469
